Assay results taken from the supplement of paper PMC4604168 (melanoma cell lines).
The list shows a part of the results. Many values rest on one well or one pass, so single values are uncertain.

What was measured:
Test in all cases: cell count relative to DMSO control; melanoma cells; higher = more viable cells
Conditions in all cases: library dose: low library concentration; 72 h
MZ2-MEL = test system: MZ2-MEL
MeWo = test system: MeWo
RPMI7951 = test system: RPMI7951
RVH-421 = test system: RVH-421
SkMel28 = test system: SkMel28
SkMel2 = test system: SkMel2
SkMel30 = test system: SkMel30
UACC62 = test system: UACC62
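Further: cell number obtained by counting DAPI-stained nuclei in high-throughput microscope images with image analysis software, screen run in 1,536-well plates.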

Structure (SMILES) | cell count (MZ2-MEL) [%] | cell count (MeWo) [%] | cell count (RPMI7951) [%] | cell count (RVH-421) [%] | cell count (SkMel28) [%] | cell count (SkMel2) [%] | cell count (SkMel30) [%] | cell count (UACC62) [%]
N#CC[C@H](C1CCCC1)n1cc(-c2ncnc3[nH]ccc23)cn1 [ruxolitinib] + CC1(C)CCC(c2ccc(Cl)cc2)=C(CN2CCN(c3ccc(C(=O)NS(=O)(=O)c4ccc(N[C@H](CCN5CCOCC5)CSc5ccccc5)c(S(=O)(=O)C(F)(F)F)c4)cc3)CC2)C1 [ABT263] (first compound 1 µM, partner dose 0.4 µM) | 93.3 | 74.6 | 49.8 | 78.6 | 119 | 91.4 | 89.2 | 121
Cc1cc(Nc2cc(N3CCN(C)CC3)nc(Sc3ccc(NC(=O)C4CC4)cc3)n2)n[nH]1 [Tozasertib] + O=c1[nH]nc(Sc2ncc([N+](=O)[O-])s2)n1-c1ccc2c(c1)OCCO2 [BI78D3] (first compound 0.006 µM, partner dose 0.2 µM) | 102 | 88.5 | 109 | 98.2 | 96.9 | 95.7 | 112 | 91.8
Cc1cc(Nc2cc(N3CCN(C)CC3)nc(Sc3ccc(NC(=O)C4CC4)cc3)n2)n[nH]1 [Tozasertib] + Cc1nc(Nc2ncc(C(=O)Nc3c(C)cccc3Cl)s2)cc(N2CCN(CCO)CC2)n1 [dasatanib] (first compound 0.006 µM, partner dose 0.004 µM) | 78.3 | 86.7 | 78.2 | 64.9 | 79.5 | 92.6 | 83 | 87.6
Cc1cc(Nc2cc(N3CCN(C)CC3)nc(Sc3ccc(NC(=O)C4CC4)cc3)n2)n[nH]1 [Tozasertib] + CCCS(=O)(=O)Nc1ccc(F)c(C(=O)c2c[nH]c3ncc(Cl)cc23)c1F [PLX4720] (first compound 0.006 µM, partner dose 0.08 µM) | 83.6 | 92.5 | 101 | 68.4 | 90 | 89.9 | 90.1 | 49.1
CC[C@]1(O)C[C@H]2CN(CCc3c([nH]c4ccccc34)[C@@](C(=O)OC)(c3cc4c(cc3OC)N(C=O)[C@H]3[C@@](O)(C(=O)OC)[C@H](OC(C)=O)[C@]5(CC)C=CCN6CC[C@]43[C@@H]65)C2)C1 [vincristine] + CC1(C)CCC(c2ccc(Cl)cc2)=C(CN2CCN(c3ccc(C(=O)NS(=O)(=O)c4ccc(N[C@H](CCN5CCOCC5)CSc5ccccc5)c(S(=O)(=O)C(F)(F)F)c4)cc3)CC2)C1 [ABT263] (first compound 0.0001 µM, partner dose 0.4 µM) | 118 | 69 | 67.7 | 58.5 | 94.5 | 97.1 | 80.9 | 83.2
CC[C@]1(O)C[C@H]2CN(CCc3c([nH]c4ccccc34)[C@@](C(=O)OC)(c3cc4c(cc3OC)N(C=O)[C@H]3[C@@](O)(C(=O)OC)[C@H](OC(C)=O)[C@]5(CC)C=CCN6CC[C@]43[C@@H]65)C2)C1 [vincristine] + CCCCCCCCc1ccc(CCC(N)(CO)CO)cc1 [fingolimod] (first compound 0.0001 µM, partner dose 2 µM) | 104 | 63.2 | 50.5 | 86.4 | 64.7 | 79.4 | 63.9 | 54.8
N#CC[C@H](C1CCCC1)n1cc(-c2ncnc3[nH]ccc23)cn1 [ruxolitinib] + CCCCCCCCc1ccc(CCC(N)(CO)CO)cc1 [fingolimod] (first compound 1 µM, partner dose 2 µM) | 94.2 | 88.9 | 91.4 | 106 | 129 | 91.1 | 107 | 106
Cc1cc(Nc2cc(N3CCN(C)CC3)nc(Sc3ccc(NC(=O)C4CC4)cc3)n2)n[nH]1 [Tozasertib] + COc1ccc(C2=N[C@@H](c3ccc(Cl)cc3)[C@@H](c3ccc(Cl)cc3)N2C(=O)N2CCNC(=O)C2)c(OC(C)C)c1 [Nutlin-3] (first compound 0.006 µM, partner dose 0.1 µM) | 103 | 79.8 | 113 | 99.4 | 69.9 | 91.7 | 94 | 103
CC[C@]1(O)C[C@H]2CN(CCc3c([nH]c4ccccc34)[C@@](C(=O)OC)(c3cc4c(cc3OC)N(C=O)[C@H]3[C@@](O)(C(=O)OC)[C@H](OC(C)=O)[C@]5(CC)C=CCN6CC[C@]43[C@@H]65)C2)C1 [vincristine] + Nc1ccn([C@@H]2O[C@H](CO)[C@@H](O)C2(F)F)c(=O)n1 [gemcitabine] (first compound 0.0001 µM, partner dose 0.0004 µM) | 103 | 78.7 | 61.9 | 83.8 | 78.4 | 93.8 | 62.7 | 57.1
N#CC[C@H](C1CCCC1)n1cc(-c2ncnc3[nH]ccc23)cn1 [ruxolitinib] + Clc1ccc(Nc2nnc(Cc3ccncc3)c3ccccc23)cc1 [vatalanib] (first compound 1 µM, partner dose 2 µM) | 90.1 | 90.1 | 85.4 | 81.3 | 93.5 | 107 | 108 | 124
Cc1cc(Nc2cc(N3CCN(C)CC3)nc(Sc3ccc(NC(=O)C4CC4)cc3)n2)n[nH]1 [Tozasertib] + COCC[n+]1c2c(n(Cc3cnccn3)c1C)C(=O)c1ccccc1C2=O [YM155] (first compound 0.006 µM, partner dose 0.0004 µM) | 60.6 | 88.9 | 92 | 69 | 95.2 | 99.2 | 96 | 86.5
Cc1cc(Nc2cc(N3CCN(C)CC3)nc(Sc3ccc(NC(=O)C4CC4)cc3)n2)n[nH]1 [Tozasertib] + C[C@]1(O)C[C@@H](c2nc(-c3ccc4ccc(-c5ccccc5)nc4c3)c3c(N)nccn32)C1 [OSI906] (first compound 0.006 µM, partner dose 0.4 µM) | 92.6 | 84.6 | 101 | 97.1 | 86.8 | 91.9 | 84.6 | 88.4
N#CC[C@H](C1CCCC1)n1cc(-c2ncnc3[nH]ccc23)cn1 [ruxolitinib] + CC(=O)c1c(C)c2cnc(Nc3ccc(N4CCNCC4)cn3)nc2n(C2CCCC2)c1=O [palbociclib] (first compound 1 µM, partner dose 0.04 µM) | 91.5 | 80.8 | 77.2 | 99.4 | 107 | 105 | 71.1 | 79.1
CC[C@]1(O)C[C@H]2CN(CCc3c([nH]c4ccccc34)[C@@](C(=O)OC)(c3cc4c(cc3OC)N(C=O)[C@H]3[C@@](O)(C(=O)OC)[C@H](OC(C)=O)[C@]5(CC)C=CCN6CC[C@]43[C@@H]65)C2)C1 [vincristine] + Clc1ccc(Nc2nnc(Cc3ccncc3)c3ccccc23)cc1 [vatalanib] (first compound 0.0001 µM, partner dose 2 µM) | 48.1 | 57.4 | 38.6 | 90.7 | 62.4 | 52.9 | 35.9 | 54.3
N#CC[C@H](C1CCCC1)n1cc(-c2ncnc3[nH]ccc23)cn1 [ruxolitinib] + C[C@@H](Oc1cc(-c2cnn(C3CCNCC3)c2)cnc1N)c1c(Cl)ccc(F)c1Cl [Crizotinib] (first compound 1 µM, partner dose 0.2 µM) | 99.6 | 102 | 132 | 133 | 120 | 112 | 105 | 102
CC[C@]1(O)C[C@H]2CN(CCc3c([nH]c4ccccc34)[C@@](C(=O)OC)(c3cc4c(cc3OC)N(C=O)[C@H]3[C@@](O)(C(=O)OC)[C@H](OC(C)=O)[C@]5(CC)C=CCN6CC[C@]43[C@@H]65)C2)C1 [vincristine] + Cn1sc(=O)n(Cc2ccccc2)c1=O [TDZD-8] (first compound 0.0001 µM, partner dose 0.4 µM) | 109 | 93.7 | 68.8 | 87.8 | 68.8 | 99.2 | 71.1 | 82.8
Cc1cc(Nc2cc(N3CCN(C)CC3)nc(Sc3ccc(NC(=O)C4CC4)cc3)n2)n[nH]1 [Tozasertib] + CS(=O)(=O)c1ccc(C(=O)Nc2ccc(Cl)c(-c3ccccn3)c2)c(Cl)c1 [vismodegib] (first compound 0.006 µM, partner dose 1 µM) | 97.7 | 88.4 | 100 | 92.3 | 91.1 | 99.1 | 102 | 85.2
N#CC[C@H](C1CCCC1)n1cc(-c2ncnc3[nH]ccc23)cn1 [ruxolitinib] + Cc1cc(Nc2cc(N3CCN(C)CC3)nc(/C=C/c3ccccc3)n2)n[nH]1 [ENMD2076] (first compound 1 µM, partner dose 0.04 µM) | 98.6 | 101 | 80 | 72.4 | 105 | 88.6 | 87.7 | 113
Cc1cc(Nc2cc(N3CCN(C)CC3)nc(Sc3ccc(NC(=O)C4CC4)cc3)n2)n[nH]1 [Tozasertib] + Nc1nc(F)nc2c1ncn2[C@@H]1O[C@H](CO)[C@@H](O)[C@@H]1O [fludarabine] (first compound 0.006 µM, partner dose 0.2 µM) | 97.9 | 29.1 | 91.7 | 78.8 | 81.3 | 5.45 | 17.5 | 63.8
